Test results taken from PubChem BioAssay (NCI).
The source holds several records for some structures; these can differ, active in one and inactive in another.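 Testing used 96-well plates and a 48-hour single-concentration exposure. Example: -40 means 40% of the starting cells died.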 The source holds more than one record for some entries. The other results are left out here. The calls were made as follows: active = growth percent below 10; inactive = the rest. There may be further records. The screen tested this drug many times, at the concentration stated with the values; one value stands for one run. Signs of the kind (2×) give the number of equal values in this list.

Test system: U251 CNS
Assay: NCI-60 one-dose screen, 48 h (100 = growth as untreated, 0 = no growth, -100 = all killed)

COc1cccc2c1C(=O)c1c(O)c3c(c(O)c1C2=O)C[C@@](O)(C(=O)CO)C[C@@H]3OC1CC(N)C(O)C(C)O1 (stereo not given in full)
growth (0.25 µM, runs of 2009): active: 9.58, 5.38, 8.84, 4.89, -8.09, 8.48, 6.76, 7.06, 5.59, 2.14, 8.6, 3.66% and inactive: 16.4, 13.7, 20.3, 18, 20.6, 24.4, 18.7, 10.2 (2×), 14.5, 10.7, 13.6, 14.3 (3×), 18.8, 16.7, 15.5, 13.5, 13.9, 16.3, 15.2, 14.1, 21.6, 12.7, 18.2, 14.8, 19.3, 12.9, 10.1, 10.5, 22.3, 24, 11.8, 11.1, 17.6 (2×), 19.5, 11.2, 19.2 (2×), 30.7, 16.9, 15.3, 18.4%
growth (0.25 µM, runs of 2010): inactive: 16.7 (2×), 18.7, 15, 16.8 (2×), 18 (2×), 23.8, 17.1 (2×), 23.6, 29.1, 19.5, 22.1, 15.7 (3×), 22, 10.3, 13.8, 21.9, 14.2, 14.3 (2×), 13.9, 16.9, 19.4, 15.5, 16, 23.1, 18.3, 17, 19, 20.5, 18.1, 12.4, 21.1, 19.8, 20.1, 13.5% and active: 9.03, 8.01, 4.92, 3.75, 9.17, 1.32%
growth (0.25 µM, runs of 2011): inactive: 15.2, 14.8, 23.5, 23.9 (2×), 19.8, 21.3, 20.9, 25, 29, 22.2, 22.4, 19, 23.1, 22.9, 26, 18.1, 23.8, 19.3, 18.4 (2×), 14.5 (3×), 20 (2×), 21.4, 13.7, 18.2, 16.8, 17.6, 16.3, 10.7, 12.1, 11.7, 24, 12.9, 10.9, 11.9, 16, 18, 12.3, 17.5, 15.7, 19.7, 20.4% and active: 6.36, 8.48, -0.104, 0.808, 7.89%
growth (0.25 µM, runs of 2012): inactive: 20.6, 15.6, 12.1, 19, 21.3 (2×), 27.3, 12.3, 15.2, 16.9, 17.5, 13.8, 13.9 (3×), 10.5 (2×), 17.1, 10.7, 18.9, 19.5 (2×), 22, 23.5, 22.9 (2×), 19.4, 22.3, 25.1 (2×), 20.5, 20.1, 21.9 (3×), 20.7, 16.7 (2×), 26.7, 18, 26.9, 22.5, 27.6, 27, 23.8, 29.3, 31.4, 32, 14.7 (2×), 10.8, 15.1, 14, 15.3, 14.9% and active: 9.36%, 5.68%
growth (0.25 µM, runs of 2013): inactive: 19.4, 16.8, 17.6, 16.9 (2×), 22 (2×), 24, 27.9, 14.7, 13, 13.7, 23, 29.3, 19.6 (2×), 31.1, 30.8, 22.5, 27.7, 26.7 (2×), 26.5, 27.5, 26.2, 26.1, 18.4, 20.1 (2×), 23.9, 19.3 (2×), 26.4 (2×), 25.5 (2×), 27.3, 25.6, 28, 15.3, 20.2, 18.2, 22.8, 19.5, 21.3, 21.4, 24.7, 24.1, 19.8, 23.3, 25, 30.7, 16.4, 22.1, 11.4, 21.1, 24.6, 10.6, 12.9, 21.5, 15.6 (2×), 14.2, 19.7% and active: 1.09%
growth (0.25 µM, runs of 2014): inactive: 19.6, 22.4 (2×), 14.1 (2×), 14.3, 14.5 (2×), 15.1 (2×), 13.5 (2×), 11.2, 15, 17, 20.6, 12.1, 11.4, 15.5, 18.4, 17.6, 19.5, 17.5, 22.7, 18.1, 18.7 (2×), 22.1, 15.6 (2×), 14.8, 16.7, 17.1, 14, 20.9, 19.2, 22.9 (2×), 20, 19.8, 21, 14.9, 12.8, 15.3, 13.9, 11.3, 13.2, 10.1, 14.2, 21.1, 13, 19.7, 16, 12.9, 16.9, 11% and active: 5.32, 1.39, -1.09, 6.68, 9.64, -3.03, -0.0407, -0.914, 0.405, 3.99, 9.46, 7.61, 5.27, 5.65, 8.82, 7.7%
growth (0.25 µM, runs of 2015): inactive: 11.2 (2×), 20.4, 13.1 (2×), 13.7, 15.6, 14.1, 10.2 (2×), 11.8, 17.1, 13.5 (2×), 15.3, 16, 10.8, 12, 14.8 (2×), 15.2 (3×), 15, 11, 18, 11.7 (4×), 15.7, 14.3, 12.8 (2×), 11.6 (2×), 15.5 (2×), 14.5 (3×), 12.7 (3×), 13, 21.3, 14, 13.2, 21, 17.5, 16.9, 16.7, 19.2, 16.4, 19.8, 10.9, 12.9, 11.1% and active: 3.91, 9.84, 9.73, 7.43, 9.26, 6.07, 6.88, 8.5, 3.53, 7.45, 7, 8.81, 9.33%
growth (0.25 µM, runs of 2016): inactive: 12.7 (2×), 14, 12.3 (2×), 12.1 (2×), 11.5 (2×), 21, 13.9 (3×), 11.9, 11.1, 11.6, 12.9, 17.6, 19, 12, 10.8 (2×), 14.3 (2×), 11.2, 12.5 (2×), 12.4, 13.8, 10.6, 16.3 (2×), 14.7, 18.4, 14.2, 16.7 (3×), 20.4 (3×), 15.7, 18.9, 14.1, 13.1 (2×), 18.2, 18.8, 18.7 (2×), 15.6, 24 (2×), 20.2, 24.9, 22.4, 20.9, 22.3, 15.1, 10, 20, 19.3, 16, 21.6, 11.7% and active: 9.83, 6.03, 9.61, 7.67, 7.84, 8.07, -0.855, 9.31%
growth (0.25 µM, runs of 2017): inactive: 14.5 (2×), 16.3 (2×), 14.2 (3×), 15.1, 11.7 (3×), 13 (3×), 11.5 (2×), 10.8 (2×), 15, 14 (3×), 14.8, 14.7 (2×), 12.7 (2×), 10.5, 12.4 (2×), 13.1 (3×), 18.3 (2×), 15.2 (2×), 11 (2×), 12.5, 15.3, 13.7 (2×), 12.3 (2×), 15.7, 10.4 (2×), 15.5, 14.1, 10.9, 12, 10.6, 11.9 (3×), 11.3, 12.1, 10.1, 10.7, 12.9, 13.5 (3×), 11.4, 13.8, 13.2% and active: 6.78, 8.99, 8.86, 8.87, 9.83, 9.55, 9.41, 9.57%
growth (0.25 µM, runs of 2018): inactive: 12.9, 11 (2×), 16 (2×), 11.2 (2×), 14.7, 11.5 (3×), 13.7 (2×), 12.3 (2×), 11.4, 13.9 (2×), 15.7 (2×), 12.8, 18.1, 15.6, 10.9, 13.2, 16.9, 18.8, 15.1, 14.5, 15 (2×), 15.3, 12.4, 12, 11.9, 15.5, 11.8, 16.3, 13.1, 10.6% and active: 8.21, 9.58, 8.29, 9.92, 9.46, 9.53, 5.32, 8.1%
growth (0.25 µM, runs of 2019): inactive: 16, 10.3, 11.1, 11.7, 14.2, 10.9, 11.6 (3×), 15.1, 12, 15.2, 13.2, 13.6, 10.1, 13 (2×), 12.1, 11.5 (2×), 13.1 (2×), 16.9, 19.2, 20.3, 13.8, 11.9 (2×), 11.3, 11.4, 10.8, 12.8, 11.2, 10.6, 10.7, 12.3 (2×), 16.4, 13.9, 14.3% and active: 8.5, 8.44, 9.67, 8.28, 3.51, 8.46, 8.68, 8.71, 9.84, 9.71, 9.68%
growth (0.25 µM, runs of 2020): active: 6.61%, 9.88% and inactive: 11.9, 13.2, 12.9 (2×), 16.4, 14.9, 12.1, 15.5, 13.6 (2×), 10.8, 17.1, 14.3, 16.3, 12, 14.5, 13.7%
growth (0.25 µM, runs of 2021): inactive: 18.1, 17.6, 17.5, 16.4, 20.4, 17, 15.5, 10.1 (2×), 13.6 (2×), 11.7, 18.7, 13.7 (2×), 12.9, 14, 15.2, 11.3 (3×), 14.2 (2×), 12.3, 15.3, 11.2, 16, 14.8, 13.9 (2×), 13.2, 14.7, 10, 22, 20, 22.1, 10.8, 10.2, 14.1, 12.7, 25.8, 18.9% and active: 7.99, 9.99, 2.59, 7.66, 9.77%
growth (0.25 µM, runs of 2022): active: 4.51, 4.62, 9.74, 4.02, 6.26, 6.69, 8.96, 9.28, 8.2, 9.88% and inactive: 11.7, 11.5, 11.1, 14.3, 19.4, 14.8, 19.7, 10.5, 11.8, 32.6, 43.4, 15, 33, 22.9, 43.5, 12, 18.2, 10.7%
growth (25 µM, runs of 1991): active: -26.3, -33.5, -14.3, -20.5, -25.9, -22.6, -13.8, -5.22, 3.16, 1.16, -23.9, -10.5, -3.22, 0.485% and inactive: 98.5%
